# Test results taken from ChEMBL document CHEMBL1961873, “Compounds: GSK PKIS; Assays: Nanosyn kinase panel” (2012).
# For some of these results: What follows is the remainder of the data, with few or none of the strong results. The list shows a part of the results, in another mix than the full data.
# Experiments:
# [1] = target: T1, Inhibitor of nuclear factor kappa-B kinase subunit epsilon (Homo sapiens) (UniProt Q14164); conditions: at 1 µM;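 further: reported values are averaged percent inhibition figures against human IKKε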
# T1 sequence (whole entry): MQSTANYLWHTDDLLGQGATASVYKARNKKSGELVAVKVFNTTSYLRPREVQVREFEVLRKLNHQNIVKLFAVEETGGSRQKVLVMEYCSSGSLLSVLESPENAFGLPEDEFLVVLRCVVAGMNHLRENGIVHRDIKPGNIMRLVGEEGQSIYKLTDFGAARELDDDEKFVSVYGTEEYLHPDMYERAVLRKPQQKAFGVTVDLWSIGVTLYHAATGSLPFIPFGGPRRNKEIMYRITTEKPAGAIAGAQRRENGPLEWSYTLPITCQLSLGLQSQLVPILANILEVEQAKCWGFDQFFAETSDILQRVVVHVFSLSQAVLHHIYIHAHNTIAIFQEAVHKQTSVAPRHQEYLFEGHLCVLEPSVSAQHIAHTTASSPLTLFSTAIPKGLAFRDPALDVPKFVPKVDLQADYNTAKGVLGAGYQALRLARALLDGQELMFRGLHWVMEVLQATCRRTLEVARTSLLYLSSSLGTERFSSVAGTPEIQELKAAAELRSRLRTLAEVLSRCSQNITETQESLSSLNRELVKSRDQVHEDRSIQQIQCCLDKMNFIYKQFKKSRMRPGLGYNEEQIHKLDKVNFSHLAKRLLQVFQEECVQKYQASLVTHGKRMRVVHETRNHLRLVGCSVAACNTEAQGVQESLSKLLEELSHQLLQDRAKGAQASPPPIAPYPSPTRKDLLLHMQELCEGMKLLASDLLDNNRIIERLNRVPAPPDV
# [2] = target: T2, Serine/threonine-protein kinase Nek1 (Homo sapiens) (UniProt Q96PY6); conditions: at 0.1 µM
# T2 sequence (whole entry): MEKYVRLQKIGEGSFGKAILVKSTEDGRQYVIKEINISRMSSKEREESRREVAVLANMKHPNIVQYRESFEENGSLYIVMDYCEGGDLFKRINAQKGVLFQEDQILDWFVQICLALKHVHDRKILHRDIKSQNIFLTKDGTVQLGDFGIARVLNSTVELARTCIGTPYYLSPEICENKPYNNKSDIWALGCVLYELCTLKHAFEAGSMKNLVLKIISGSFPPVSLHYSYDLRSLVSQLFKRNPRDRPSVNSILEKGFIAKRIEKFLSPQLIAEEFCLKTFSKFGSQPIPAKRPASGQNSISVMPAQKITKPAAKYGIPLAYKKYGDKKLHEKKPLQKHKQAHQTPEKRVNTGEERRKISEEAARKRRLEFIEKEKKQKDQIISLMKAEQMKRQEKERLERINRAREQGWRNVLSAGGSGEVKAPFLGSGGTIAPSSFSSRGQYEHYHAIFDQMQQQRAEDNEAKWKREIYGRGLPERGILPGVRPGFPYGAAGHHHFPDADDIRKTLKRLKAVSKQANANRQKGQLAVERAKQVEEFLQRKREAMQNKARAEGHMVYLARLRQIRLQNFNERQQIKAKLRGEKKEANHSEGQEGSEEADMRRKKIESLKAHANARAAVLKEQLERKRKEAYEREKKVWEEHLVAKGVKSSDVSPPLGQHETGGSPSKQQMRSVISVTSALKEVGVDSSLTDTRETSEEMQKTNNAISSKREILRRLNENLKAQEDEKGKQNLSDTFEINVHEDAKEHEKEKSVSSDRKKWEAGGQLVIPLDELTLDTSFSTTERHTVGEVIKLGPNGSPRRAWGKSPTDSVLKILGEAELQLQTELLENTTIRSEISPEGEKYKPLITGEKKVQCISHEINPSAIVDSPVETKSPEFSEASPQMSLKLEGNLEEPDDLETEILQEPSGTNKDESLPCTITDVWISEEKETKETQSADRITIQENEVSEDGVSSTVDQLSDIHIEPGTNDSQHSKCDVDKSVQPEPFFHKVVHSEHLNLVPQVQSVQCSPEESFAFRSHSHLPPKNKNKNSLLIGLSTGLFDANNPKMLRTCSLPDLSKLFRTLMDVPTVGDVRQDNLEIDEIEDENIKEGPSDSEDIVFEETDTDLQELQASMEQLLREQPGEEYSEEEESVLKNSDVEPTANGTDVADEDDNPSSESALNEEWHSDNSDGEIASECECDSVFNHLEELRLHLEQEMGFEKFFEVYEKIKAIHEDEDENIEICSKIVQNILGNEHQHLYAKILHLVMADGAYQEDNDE
# [3] = target: T2, Serine/threonine-protein kinase Nek1 (Homo sapiens); conditions: at 1 µM
# [4] = target: T3, Serine/threonine-protein kinase Nek2 (Homo sapiens) (UniProt P51955); conditions: at 0.1 µM
# T3 sequence (whole entry): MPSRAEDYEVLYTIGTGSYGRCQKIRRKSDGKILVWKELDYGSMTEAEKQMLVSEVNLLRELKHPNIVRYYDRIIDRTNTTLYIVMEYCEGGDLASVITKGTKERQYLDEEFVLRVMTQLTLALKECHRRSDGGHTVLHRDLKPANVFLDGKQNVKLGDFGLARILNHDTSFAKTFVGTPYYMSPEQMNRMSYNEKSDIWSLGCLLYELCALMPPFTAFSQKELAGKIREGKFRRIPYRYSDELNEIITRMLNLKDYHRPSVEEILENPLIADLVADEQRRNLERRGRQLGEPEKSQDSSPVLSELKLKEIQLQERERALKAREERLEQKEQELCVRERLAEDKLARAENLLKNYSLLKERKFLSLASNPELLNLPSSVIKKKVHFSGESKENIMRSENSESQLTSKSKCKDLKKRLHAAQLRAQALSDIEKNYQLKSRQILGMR
# [5] = target: T3, Serine/threonine-protein kinase Nek2 (Homo sapiens); conditions: at 1 µM
# [6] = target: T4, Serine/threonine-protein kinase Nek6 (Homo sapiens) (UniProt Q9HC98); conditions: at 0.1 µM
# T4 sequence (whole entry): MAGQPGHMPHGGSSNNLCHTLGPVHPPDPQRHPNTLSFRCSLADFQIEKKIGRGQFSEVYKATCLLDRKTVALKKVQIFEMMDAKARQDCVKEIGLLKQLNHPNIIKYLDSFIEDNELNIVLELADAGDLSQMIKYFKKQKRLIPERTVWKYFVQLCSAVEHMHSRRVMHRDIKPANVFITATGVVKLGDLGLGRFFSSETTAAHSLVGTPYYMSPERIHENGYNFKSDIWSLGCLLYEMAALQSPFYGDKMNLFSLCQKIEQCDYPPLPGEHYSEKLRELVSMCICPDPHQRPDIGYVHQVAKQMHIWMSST
# [7] = target: T4, Serine/threonine-protein kinase Nek6 (Homo sapiens); conditions: at 1 µM
# [8] = target: Serine/threonine-protein kinase Nek7 (Homo sapiens) (UniProt Q8TDX7); conditions: at 0.1 µM
# Chain of UniProt Q8TDX7 (Q8TDX7 whole entry, looked up): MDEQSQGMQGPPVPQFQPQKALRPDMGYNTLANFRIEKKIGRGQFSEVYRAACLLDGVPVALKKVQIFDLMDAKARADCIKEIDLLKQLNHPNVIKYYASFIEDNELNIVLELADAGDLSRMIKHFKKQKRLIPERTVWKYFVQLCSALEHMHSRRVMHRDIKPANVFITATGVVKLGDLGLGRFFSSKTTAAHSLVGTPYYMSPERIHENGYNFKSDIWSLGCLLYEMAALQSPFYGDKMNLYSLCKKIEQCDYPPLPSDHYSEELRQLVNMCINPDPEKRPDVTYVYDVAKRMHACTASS
# [9] = target: Serine/threonine-protein kinase Nek7 (Homo sapiens) (UniProt Q8TDX7); conditions: at 1 µM
# [10] = target: T5, Serine/threonine-protein kinase Nek9 (Homo sapiens) (UniProt Q8TD19); conditions: at 0.1 µM;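 further: reported value is the mean percent inhibition of NEK9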
# T5 sequence (whole entry): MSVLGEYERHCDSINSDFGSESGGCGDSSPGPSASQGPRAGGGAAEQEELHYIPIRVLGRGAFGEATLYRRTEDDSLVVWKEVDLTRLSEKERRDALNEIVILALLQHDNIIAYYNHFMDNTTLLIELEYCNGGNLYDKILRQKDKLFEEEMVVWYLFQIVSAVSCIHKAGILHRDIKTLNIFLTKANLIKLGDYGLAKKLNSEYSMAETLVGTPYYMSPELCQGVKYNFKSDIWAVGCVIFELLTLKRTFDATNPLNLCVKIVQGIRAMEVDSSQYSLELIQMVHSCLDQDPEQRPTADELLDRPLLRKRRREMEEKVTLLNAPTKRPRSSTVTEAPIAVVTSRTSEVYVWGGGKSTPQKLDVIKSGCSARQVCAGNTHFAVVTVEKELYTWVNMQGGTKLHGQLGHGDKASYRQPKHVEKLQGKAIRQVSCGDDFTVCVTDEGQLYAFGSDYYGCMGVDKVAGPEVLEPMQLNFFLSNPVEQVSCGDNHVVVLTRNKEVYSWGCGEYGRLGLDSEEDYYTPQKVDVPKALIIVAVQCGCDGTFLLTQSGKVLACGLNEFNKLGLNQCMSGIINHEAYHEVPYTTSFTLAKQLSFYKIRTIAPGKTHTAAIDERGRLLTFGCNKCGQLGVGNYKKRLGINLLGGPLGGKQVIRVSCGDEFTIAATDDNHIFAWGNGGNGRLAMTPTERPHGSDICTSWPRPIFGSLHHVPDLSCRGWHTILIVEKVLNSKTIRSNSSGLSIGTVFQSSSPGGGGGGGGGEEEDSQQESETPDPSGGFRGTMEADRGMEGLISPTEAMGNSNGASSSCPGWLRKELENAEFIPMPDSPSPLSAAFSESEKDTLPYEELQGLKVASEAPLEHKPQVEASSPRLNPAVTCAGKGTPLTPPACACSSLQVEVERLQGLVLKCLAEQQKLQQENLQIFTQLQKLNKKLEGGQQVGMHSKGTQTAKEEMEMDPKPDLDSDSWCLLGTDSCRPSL
structure (smiles),measurement,setting,value
NC(=O)CCc1ccccc1Oc1nccc(-c2c(-c3ccc(F)cc3)ncn2C2CCNCC2)n1,inhibition,[1],-2.27%
same,inhibition,[2],-0.54%
same,inhibition,[3],-0.1%
same,inhibition,[4],-1.44%
same,inhibition,[5],-1.37%
same,inhibition,[6],6.14%
same,inhibition,[7],-1.16%
same,inhibition,[8],-2.98%
same,inhibition,[9],1.8%
same,inhibition,[10],0.96%
